In the supplement of paper PMC3334620:
In all, about 33,000 sequences were measured (“E-score (-0.5 to 0.5)”: median about -0.043, highest 2% from about 0.37 on). The list shows a part of the results.

molecular target: T1, Upc2 (UniProt Q12151); test: PBM E-score (8-mer binding enrichment) (E-score (-0.5 to 0.5)); higher = stronger / more preferred TF binding; most listed sequences are background and not binding sites; details: protein concentration: 200 nM; construct: GST-full length
T1 sequence: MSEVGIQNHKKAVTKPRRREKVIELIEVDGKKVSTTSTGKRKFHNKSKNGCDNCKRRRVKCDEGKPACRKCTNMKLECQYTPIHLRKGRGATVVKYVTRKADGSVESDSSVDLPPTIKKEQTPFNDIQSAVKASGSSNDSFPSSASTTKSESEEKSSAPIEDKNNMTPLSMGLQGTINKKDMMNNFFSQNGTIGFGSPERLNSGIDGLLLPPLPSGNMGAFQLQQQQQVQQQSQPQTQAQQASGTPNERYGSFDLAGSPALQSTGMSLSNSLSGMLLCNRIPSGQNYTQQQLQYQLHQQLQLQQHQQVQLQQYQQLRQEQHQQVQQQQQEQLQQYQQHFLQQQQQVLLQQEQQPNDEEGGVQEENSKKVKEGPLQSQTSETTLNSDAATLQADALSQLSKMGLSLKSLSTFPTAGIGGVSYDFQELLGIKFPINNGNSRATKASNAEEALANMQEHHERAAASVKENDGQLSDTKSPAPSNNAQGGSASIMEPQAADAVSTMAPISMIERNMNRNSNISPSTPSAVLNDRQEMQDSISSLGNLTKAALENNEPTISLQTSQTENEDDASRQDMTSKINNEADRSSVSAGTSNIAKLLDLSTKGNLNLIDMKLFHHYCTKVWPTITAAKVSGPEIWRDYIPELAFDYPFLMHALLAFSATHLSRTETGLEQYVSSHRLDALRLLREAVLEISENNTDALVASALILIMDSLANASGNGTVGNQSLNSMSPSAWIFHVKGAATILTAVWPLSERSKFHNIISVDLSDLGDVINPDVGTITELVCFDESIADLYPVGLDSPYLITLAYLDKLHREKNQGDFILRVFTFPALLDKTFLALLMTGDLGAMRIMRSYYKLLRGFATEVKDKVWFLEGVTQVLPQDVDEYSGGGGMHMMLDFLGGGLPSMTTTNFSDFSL
How it was run: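 Masliner-normalised scans of fluorescent anti-GST signal were the basis for scoring. That signal came from GST-tagged yeast transcription factors applied at about 100-200 nM to double-stranded universal all-10-mer Agilent arrays on fresh or once-stripped slides. Each ungapped eight-base word, pooled with its reverse complement, received an E-score from the Universal PBM Analysis Suite.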

| Sequence | PBM E-score |
| --- | --- |
| CCGGCCCC | 0.00831 |
| GTTATACA | 0.0778 |
| ACCTTGAG | -0.164 |
| GGGTAAAC | 0.233 |
| GAACAGTA | 0.101 |
| ACCAGGGT | -0.0954 |
| CAGAATGG | -0.0946 |
| AAATGTGT | -0.0399 |
| AGACGTCT | -0.122 |
| AGCGAATA | 0.123 |
| TCAATGCA | -0.208 |
| CTGATGTA | -0.156 |
| AACTGTAC | 0.324 |
| GTGAATCA | -0.315 |
| GCGCACAA | 0.159 |
| AAGAATAT | 0.0235 |
| CTAGTTGC | -0.0741 |
| ACAGTGCG | -0.00565 |
| GAGCGATA | 0.218 |
| ACTCCTCG | 0.282 |
| ATAATCGG | 0.0801 |
| ATACCATC | -0.0205 |

| Sequence | PBM E-score |
| --- | --- |
| CCTTGTTA | -0.0682 |
| ATCTGATG | -0.158 |
| GCGGAAAC | -0.0877 |
| AGTCGTTA | 0.317 |
| ACGGTGTA | 0.308 |
| CGTCCCCC | -0.194 |
| AGGCAGTA | -0.125 |
| TAACGAAA | 0.334 |
| GAACATAC | 0.243 |
| ACAAAAAC | 0.139 |
| GGCAACAC | -0.167 |
| TCCGTACA | 0.406 |
| GTATCTAA | 0.131 |
| CGCAGATA | -0.0855 |
| ATCTCGAC | 0.0574 |
| GAATGGCA | -0.18 |
| CAGGAGGA | -0.183 |
| GACTACAA | -0.0845 |
| ACGAGCGA | 0.379 |
| ATCTTAGA | -0.0845 |
| ATTATGTA | 0.0402 |
| GTCGAATA | 0.258 |

| Sequence | PBM E-score |
| --- | --- |
| CATAATGG | -0.179 |
| ATACGCTA | 0.329 |
| AGACGGAG | -0.0909 |
| GATATGAA | 0.0888 |
| CACAGCGA | 0.0677 |
| CCGTTACC | 0.0638 |
| ACCGGTTG | 0.11 |
| CGTCTCTC | -0.0107 |
| ACTCTTCA | -0.00317 |
| CACTAATG | -0.0741 |
| ACCAGTCT | 0.0395 |
| GTGACGCA | -0.0632 |
| AAGTATAC | 0.306 |
| ACGTCTGG | -0.00268 |
| ACTCCCCC | -0.13 |
| ACTTGAAC | 0.276 |
| AGCAATGC | 0.0427 |
| AGTCGATA | 0.0566 |
| AGATGGGA | -0.335 |
| AGACAGAT | -0.164 |
| ATAAGGCC | -0.0528 |
| AACTCTTG | -0.188 |

| Sequence | PBM E-score |
| --- | --- |
| AGTCTGGG | -0.0458 |
| AACACGGC | -0.188 |
| GTGCGCCA | -0.114 |
| GTAAAAAA | 0.123 |
| TGGCTAAA | -0.186 |
| CTCTGCAA | -0.0496 |
| ATTCCTAA | -0.00315 |
| TGTCATAA | 0.0655 |
| GCGACTCC | -0.0919 |
| GATCAAAA | -0.0517 |
| AAACGAAG | 0.464 |
| CGACGTTC | 0.143 |
| CGTAGCTA | 0.203 |
| AATAATCC | -0.0617 |
| GTACCTAA | 0.181 |
| ACCCGCCC | -0.0357 |
| AACTCTGG | 0.0038 |
| CTGGCTAC | 0.132 |
| CGGGCTGC | 0.00474 |
| GATTTATA | 0.21 |
